# Values joined by “and” are separate entries in the source; they are usually repeats but may differ in a detail not shown here. Equal entries are not always repeated. Screen size: about 350,000 compounds; about 180 (0.051%) were called active. Inconclusive means that the source gave no clear call. Such entries were picked first, then a sample of the others.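 The calls were made as follows: active = mean replicate inhibition above about 25%, with every replicate also reaching it (limit read from the data, passing the limit was not always enough); inconclusive = only one of those two criteria met; inactive = neither criterion met.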 Where a SMILES comes first, the peptide text is derived from it.
# Molecular target: Protein disulfide-isomerase A6 (Homo sapiens) (UniProt Q15084)
# Assay: inhibitors of ERp5-driven insulin aggregation, primary screen, biochemical, turbidity, absorbance 650 nm, single point (AID 651711)
# Conditions: 90 min, at 9.99 µM, active compounds read high
# UniProt Q15084, sequence (Q15084 whole entry, looked up): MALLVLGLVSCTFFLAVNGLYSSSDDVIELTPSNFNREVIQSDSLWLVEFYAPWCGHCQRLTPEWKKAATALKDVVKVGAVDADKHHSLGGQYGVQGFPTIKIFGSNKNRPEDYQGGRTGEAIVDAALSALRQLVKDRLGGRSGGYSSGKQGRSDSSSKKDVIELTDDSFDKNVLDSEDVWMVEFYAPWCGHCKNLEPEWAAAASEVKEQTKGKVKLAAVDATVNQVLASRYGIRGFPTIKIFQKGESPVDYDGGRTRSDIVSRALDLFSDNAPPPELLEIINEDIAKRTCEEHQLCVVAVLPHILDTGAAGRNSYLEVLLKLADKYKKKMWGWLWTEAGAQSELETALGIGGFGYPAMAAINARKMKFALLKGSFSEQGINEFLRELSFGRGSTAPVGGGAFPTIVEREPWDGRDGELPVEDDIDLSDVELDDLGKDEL
row,SMILES,inhibition
1,CCCC1(c2ccccc2)NC(=O)N(CC(=O)Nc2cc(C)on2)C1=O (centres undefined),inactive: 0.954%
2,C[C@@H]1CN([C@@H](C)CO)C(=O)c2cc(-c3cccnc3)cnc2O[C@@H]1CN(C)C(=O)c1ccccc1F,inactive: -7.87%
3,O=C(Nc1cccc(Cl)c1)ON=C1c2ccccc2-c2ccccc21,inconclusive: 37.9%
4,C[C@H](CO)N1C[C@H](C)[C@@H](CN(C)C(=O)Nc2ccc3c(c2)OCO3)Oc2ccc(NC(=O)C3CCCCC3)cc2CC1=O,inactive: 3.42%
5,COc1ccccc1CN1C[C@@H]2C[C@@H](c3cccc(C)c3)N3CCC[C@@]23C1=O,inconclusive: 40.8%
6,CCSc1nnc(NC(=O)CSc2nnc(CNC(=O)c3ccc(OC)c(OC)c3)o2)s1,inconclusive: 39.5%
7,CC(C)Oc1ccc(C2C(C#N)=C(N)Oc3c2oc(CO)cc3=O)cc1 (centres undefined),inconclusive: 36.8%
8,O=C(Nc1ccc2c(c1)[C@@H]1C[C@@H](CC(=O)N3CCc4ccccc4C3)O[C@@H](CO)[C@@H]1O2)Nc1ccccc1F,inactive: -0.784%
9,COc1ccc(NC(=O)CSc2nnc(NC(=O)C3CC3)s2)cc1OC,active: 26.1%
10,CN(C)c1ccc(CNS(=O)(=O)c2ccc3c(c2)C(C)(C)C(=O)N3C)cc1,inconclusive: 48%
11,COc1ccc(/C=C/C(=O)O)cc1S(=O)(=O)N1CCC(Cc2ccccc2)CC1,inconclusive: 32.5%
12,O=C(C[C@H]1CC[C@@H](NS(=O)(=O)c2ccccc2)[C@@H](CO)O1)NCc1ccncn1,inconclusive: 35.5%
13,O=C(COC(=O)C12CC3CC(CC(O)(C3)C1)C2)Nc1ccc(Cl)cc1F,inconclusive: 48.7%
14,O=C(NCc1nc2ccccc2[nH]1)C1=C[C@H](c2ccc3c(c2)OCO3)C[C@H](OCc2ccc(CO)cc2)O1,inactive: 4.32% and inactive: 4.17%
15,CCOc1cc(/C=N/NC(=O)c2cccnc2)cc(Br)c1OCC(N)=O,inactive: -1.71%
16,Cc1ccc(CNC(=O)CSCc2ccc(F)cc2)cc1,inconclusive: 51.5%
17,COc1ccc(C2CC(=O)C(C=NCCN3CCN(C(=S)Nc4ccccc4)CC3)=C(O)C2)cc1OC (centres undefined),inconclusive: 34.8%
18,Cc1ccc(S(=O)(=O)Nc2cc(=O)[nH]c(SCc3ccc(Cl)cc3)n2)cc1,inconclusive: 25.9%
19,O=c1cc(CO)oc(C(Nc2ccccn2)c2ccccc2F)c1O (centres undefined),inactive: -3.79%
20,O=C(O)/C=C/C(=O)N1CCN(c2ccc(F)cc2)CC1,inconclusive: 52.4%
21,CN(C)C(=O)[C@@H]1[C@@H](CO)[C@@H]2Cn3c(ccc(-c4ccccc4)c3=O)[C@@H]2N1Cc1ccccc1,inactive: 8.07%
22,CC(C)(C)NC(=O)CCN(/N=C/c1ccc([N+](=O)[O-])o1)C1=NS(=O)(=O)c2ccccc21,inactive: -0.233%
23,C[C@@H]1CN([C@H](C)CO)C(=O)c2cc(/C=C/c3ccccc3)cnc2O[C@@H]1CN(C)C(=O)CN1CCOCC1,inactive: 0.576%
24,CCCNC(=S)N1CC2(C)CN(C(=O)C(=O)OC)CC(C)(C1)C2=O,inconclusive: 47.6%
25,CCCNC(=O)N(C)C[C@H]1Oc2cc(C3=CCCC3)ccc2S(=O)(=O)N([C@H](C)CO)C[C@H]1C,inactive: 0.363%
26,CCCN(CCC)C(=O)CC(c1ccccc1)c1ccco1 (centres undefined),inconclusive: 43.6%
27,COc1ccc(S(=O)(=O)Nc2ccccc2C(=O)N2CCCC2)cc1OC,inconclusive: 39.5%

row,SMILES,inhibition
1,COc1ccc2c3c([nH]c2c1)[C@@H](CO)N(C(=O)C1CCCC1)CC31CCN(C(=O)NC(C)C)CC1,active: 26.7%
2,CC=Cc1ccc2n(c1=O)C[C@@H]1[C@@H](CO)[C@H](C(=O)NCCC)N(C(=O)C3CCOCC3)[C@H]21 (mixture of isomers),inconclusive: 44.8%
3,COCC(=O)N1[C@@H]2Cn3c(ccc(-c4ccccc4)c3=O)[C@H]1[C@@H](C(=O)NCc1ccccn1)[C@@H]2CO,inactive: -3%
4,CSc1ccc(CNc2cccc3ccccc23)cc1,inconclusive: 34.8%
5,CSc1nc(-c2ccc(F)cc2)cc(=O)[nH]1,inconclusive: 37.3%
6,Nc1ccccc1Nc1cc(-c2ccccc2)nn1-c1ccccc1,inconclusive: 30.2%
7,CCOC(=O)c1[nH]ncc1[C@@H]1C[C@H]2CN(Cc3cccc(Cl)c3)C(=O)[C@]23CCCN13,inconclusive: 25.7%
8,COC(=O)Cc1c(O)ccn(Cc2ccc(OC)c(OC)c2)c1=O,inconclusive: 38.3%
9,Cc1cc(C)cc(N2C(=O)c3nccnc3C2=O)c1,inconclusive: 55.3%
10,O=C(C[C@H]1C[C@H]2c3cc(NC(=O)CC4CC4)ccc3O[C@H]2[C@@H](CO)O1)NCc1ccc(-c2ccccc2)cc1,active: 52.7%
11,CC(C)C(C(=O)Nc1nccs1)N1C(=O)c2ccccc2C1=O (centres undefined),inconclusive: 40.1%
12,CCOC(=O)c1c(C)[nH]c(C(=O)N2CCCC(C(=O)c3cccc(OC)c3)C2)c1C (centres undefined),inconclusive: 43.2%
13,c1ccc(-c2nc3ccccc3s2)nc1,inconclusive: 28.9%
14,COc1ccc(C(=O)Nc2ccccc2N2CCOCC2)cc1S(=O)(=O)N1CCOCC1,inactive: 3.34%
15,COC(=O)/C=C1\NC(=O)C(C)S1 (centres undefined),inconclusive: 35.5%
16,O=C(N/N=C/c1cc(Br)c(Br)s1)c1ccncc1,inconclusive: 41.6%
17,Nc1nc(NC(=O)/C=C\C(=O)O)nn1-c1ccccc1,inconclusive: 43.1%
18,Cc1cc(NS(=O)(=O)c2ccc(NC(=O)CSc3nc4ncc(Cl)cc4[nH]3)cc2)nc(C)n1,inconclusive: 43.4%
19,CCCC(=O)Nc1ccc2c(c1)OC[C@@H](C)N(C(=O)c1ccncc1)C[C@@H](C)[C@H](OC)CN(C)C2=O,inactive: 2.12%
20,O=C(CN1CCCC1)Nc1ccc([N+](=O)[O-])cc1,inconclusive: 40%
21,CN1CCCCC(NC(=O)c2ccccc2)C1=O (centres undefined),inactive: 3.93%
22,Cc1nnc2sc(SCC(=O)N3CCC(C)CC3)nn2c1=O,inactive: -1.33%
23,C[C@@H]1CN([C@@H](C)CO)C(=O)Cc2cc(NC(=O)C3CCCCC3)ccc2O[C@H]1CN(C)Cc1ccncc1,inconclusive: 2.58%
24,O=C1/C(=C/c2cccs2)CCC1C1CCCC1 (centres undefined),inconclusive: 35.4%
25,Cc1ccc(C2=NC3(CCCCC3)N=C2SCC(=O)Nc2ccc3c(c2)OCCO3)cc1,inconclusive: 43.7%
26,Cc1ccc2cc(CN(CC3CCCO3)C(=S)Nc3ccccc3)c(=O)[nH]c2c1 (centres undefined),inconclusive: 61.1%
27,COc1ccc(OC)c(/C=C/C(=O)OCC(=O)N2C(C)CCCC2C)c1 (centres undefined),inactive: 10.5%

row,SMILES,inhibition
1,O=C(N[C@@H](Cc1c[nH]c2ccccc12)C(=O)O)c1ccccc1Cl,inconclusive: 40.3%
2,CN(C)Cc1nc2ccccc2c(=O)n1CC#N,inconclusive: 39.9%
3,CC1(C)Cc2c(c(N3CCOCC3)nc3sc4c(NCCN5CCOCC5)nnnc4c23)CS1,inconclusive: 31.2%
4,O=C(C[C@@H]1CC[C@@H]2[C@H](COC[C@H](O)CN2C(=O)Cc2ccccc2)O1)NC1CCC1,inactive: 9.77%
5,CCCC(CCC(=O)Nc1cccc([N+](=O)[O-])c1)C(=O)O (centres undefined),inconclusive: 34.4%
6,O=C(CNC(=O)c1ccccc1)NCC(=O)OCC(=O)c1ccccc1 (HELM PEPTIDE1{[O=C(c1ccccc1)[*:2]].G.G.[O=C(CO[*:1])c1ccccc1]}$$$$V2.0),inconclusive: 29.7%
7,CCCC(=O)NC(c1ccc(OC)cc1)c1ccc2cccnc2c1O (centres undefined),inconclusive: 27.4%
8,COc1ccc(C(=O)NC(=S)N2CCCc3ccccc32)cc1OC,inactive: -0.456%
9,Cc1cc(C=O)c(C)n1-c1ccc(Cl)c(C(=O)O)c1,inactive: 3.68%
10,CC(=O)Nc1ccc(NS(=O)(=O)c2ccc3[nH]c(=O)[nH]c3c2)cc1,inconclusive: 39.1%
11,COC(=O)[C@H]1[C@H]2C[C@H]3c4[nH]c5ccccc5c4CCN3C[C@H]2CC[C@@H]1O,inconclusive: 49.4%
12,Cc1ccccc1C(=O)N(Cc1nc2ccccc2c(=O)[nH]1)C1CCCC1,inconclusive: 37.4%
13,COc1ccccc1N=CC=C1OC(C)(C)C(C)(C)O1,inconclusive: 46.9%
14,COc1ccc(NS(=O)(=O)c2cc(NC(=O)c3cc(F)c(F)c(F)c3F)ccc2N2CCCC2)cc1,inconclusive: 40.4%
15,O=C(CN1CCCC1)N1c2ccccc2C=Cc2ccccc21,inactive: -2.71%
16,CN1N=C(C(=O)N=c2sc3ccccc3n2C)CCC1=O,inconclusive: 40.2%
17,COc1ccc(Cl)cc1N1C(=O)CN(Cc2cc(OC)c(OC)c(OC)c2)C1=S,inconclusive: 48.9%
18,CCCC(=O)Nc1ccc2c(c1)C(=O)N(C)[C@H]1CC[C@@H](CC(=O)O)O[C@@H]1CO2,inactive: -1.13%
19,COc1ccc(N=Cc2c(O)c3ccccc3n2C(C)=O)cc1,inconclusive: 42.8%
20,c1ccc(-c2cn3cccnc3n2)cc1,inconclusive: 47.6%
21,COc1ccccc1NS(=O)(=O)c1ccc(C(=O)N2CCN(c3ccccn3)CC2)cc1,active: 26.9%
22,C/C(=N\NC(=O)c1c(Br)c(C)nn1C)c1ccc(NC(=O)c2ccoc2C)cc1,inconclusive: 31.3%
23,CN(CC(=O)Nc1ccc(F)c(F)c1F)C(=O)c1cc(-c2ccncc2)nc2ccccc12,active: 29%
24,COC(=O)C1=C(C)OC(N)=C(C#N)C1c1c(C)nn(C)c1C (centres undefined),inconclusive: 43.8%
25,C[C@@H]1CN([C@@H](C)CO)C(=O)Cc2cc(NC(=O)Cc3ccccc3)ccc2O[C@@H]1CN(C)C(=O)Nc1ccc(C(F)(F)F)cc1,active: 36.6%
